The target of the assay is purified HLA-A*02:01 class I molecules (human (endogenous in JY)). Nature of the assay: radioligand binding.

With RKSAPSTGGV [H3.3WT_(26–35) peptide], the IC50 was over 38.7 µM.

The term IC50 denotes the concentration needed to halve the response being measured. The low end stands for higher potency, the high end for lower potency.

For the origin of these results see PMC5748856 (The Journal of Experimental Medicine, 2018).
